# Laboratory results from PubChem BioAssay AID463173 (ICCB-Longwood Screening Facility, Harvard Medical School, 2010).
# In all, about 52,000 compounds went through this assay and about 1,700 (3.3%) were called active. Rule as the data show it: active = survival mostly below about 52% (no sharp cut-off); inactive = mostly above about 56%. The list shows a part of the results.
# Test system: Wild type
# Test: growth inhibition of S. aureus wild type versus tarO mutant, primary screen, teichoic acid synthesis inhibitors, RN4220, OD600 (AID 463173)
# Details: S. aureus RN4220 wild type/DeltatarO growth, OD600, 18 h, active compounds read low, screened at 18.75 µg/mL (by protocol)
row,SMILES,survival
1,CCc1ccc(NC(=O)C2CCCN2S(=O)(=O)c2ccc3nc(-c4ccccc4)[nH]c3c2)cc1 (configuration not stated),inactive: 96%
2,Cc1csc2nc(COc3ccc(NC(=O)C(C)C)cc3)cc(=O)n12,inactive: 92%
3,CCOC(=O)Cc1c(C)nc2cc(-c3ccc(C(C)(C)C)cc3)nn2c1C,active: -2%
4,Cn1c(=O)n(CC(=O)O)c(=O)c2c1nc1n2CCCN1c1ccc(Cl)cc1,inactive: 94%
5,CCOC(=O)c1c(NC(=O)CSc2nc(-c3ccc(OC)cc3)cc(C(F)(F)F)n2)sc(C)c1C,inactive: 77%
6,Cc1ccc(NC(=O)c2c3c(nc4ccccc24)C(=O)N(C2CCCCC2)C3)cc1F,inactive: 66%
7,Cc1ccccc1NC(=O)CC1NCCNC1=O (configuration not stated),inactive: 128%
8,C=CCc1ccccc1OCc1nc2ccc(C)cc2[nH]1,inactive: 78%
9,COc1ccc(-n2ncc(C(=O)N3CCN(C4CCCCC4)CC3)c2C2CCN(C(=O)OC(C)(C)C)CC2)cc1,inactive: 67%
10,COc1ccc(C2CC(=O)c3cnc4c(-c5ccc(F)cc5)c(C)nn4c3C2)cc1OC (configuration not stated),inactive: 74%
11,CCN(CC)S(=O)(=O)c1ccc2c(c1)c(=O)c(C(=O)NCCc1ccccc1)cn2C,inactive: 94%
12,CCOc1ccccc1NC(=O)c1cc2cc3cc(C)ccc3nc2s1,inactive: 81%
13,COc1ccc(-n2c(SCC(=O)NCc3ccco3)nc3c([nH]c4ccccc43)c2=O)cc1,inactive: 75%
14,CCCNC(=O)CSc1c2c(nc3ccc(Cl)cc13)CCCC2,inactive: 72%
15,CCOC(=O)c1cc2c(=O)n3ccccc3nc2n(Cc2ccco2)c1=NC(=O)c1cccc(C)c1,inactive: 67%
16,CCCn1c2ccccc2c2cnn(CC(=O)N(CC)c3cc(C)ccc3C)c(=O)c21,inactive: 90%
17,O=C(O)CN1C(=O)/C(=N\N2C(=O)CSC2=S)c2ccccc21,inactive: 90%
18,Cc1ccc(NC(=O)CSc2nc3ccccc3c(=O)n2CCC(=O)NC2CCCCC2)cc1C,inactive: 93%
19,CCOc1ccc(NC(=O)CC2C(=O)N(c3ccccc3)C(=O)N2C2CCCC2)cc1 (configuration not stated),inactive: 80%
20,Cc1cccc(N2CCN(C(=O)c3cnn(-c4ccc(F)cc4F)c3C3CCN(C(=O)OC(C)(C)C)CC3)CC2)c1C,inactive: 99%
21,Cc1ccc(CNC(=O)Cn2nc(N3CCN(c4ccccc4)CC3)ccc2=O)cc1,inactive: 55%
22,CCc1ccccc1NC(=O)c1ccc(Cn2nc(N3CCN(c4ccccc4)CC3)ccc2=O)o1,inactive: 70%

row,SMILES,survival
1,Cc1cc(=O)n(Cc2ccccc2)c2c1c(C)nn2-c1ccccc1,inactive: 72%
2,Cc1ccc(NC(=O)Nc2cn(C)c(=O)c3ccccc23)c(Cl)c1,inactive: 69%
3,Cc1cccc(N2CCN(C(=O)C3CCN(S(=O)(=O)c4c(C)noc4/C=C/c4ccccc4F)CC3)CC2C)c1 (configuration not stated),inactive: 74%
4,Cc1ccc2oc(=O)c3cnn(CC(=O)N4CCN(c5ccccc5F)CC4)c3c2c1,inactive: 92%
5,Cc1nc2c3ccccc3nc(NNC(=O)CCC(=O)N3CCN(c4cc(Cl)ccc4C)CC3)n2n1,inactive: 89%
6,COCc1cc(C)nc2sc(C(=O)Nc3ccc(C(C)=O)cc3)c(N)c12,inactive: 96%
7,COc1ccc(OCC(=O)Nc2cccc(C(=O)OCc3cc(=O)n4nc(C)sc4n3)c2)cc1,inactive: 136%
8,COc1cccc(NC(=O)c2sc3nc(C)c(C(=O)Nc4ccc(C)cc4C)c(-c4ccco4)c3c2N)c1,inactive: 107%
9,CCc1cccc(NC(=O)CSc2nc3ccccc3nc2N2CCCCC2)c1,active: -13%
10,CNC(=O)CCCN1C(=O)CCn2nc(-c3cn(C)c4ccccc34)cc21,inactive: 133%
11,COC(=O)c1ccc2c(=O)n(CCCCCC(=O)N3CCN(c4cc(C)ccc4C)CC3)c(=O)[nH]c2c1,inactive: 84%
12,CCOC(=O)c1c(NC(=O)/C=C/c2ccc(OCC)cc2)sc(C(C)=O)c1C,inactive: 88%
13,Cc1nn(-c2ccccc2)c2sc(C(=O)Nc3cccc(Cl)c3)cc12,active: 5%
14,COc1cc2nc(NCCc3ccccc3)n3nc(-c4cccnc4)nc3c2cc1OC,inactive: 122%
15,CCC(=O)N1CCc2cc(CNS(=O)(=O)c3ccc(C(C)C)cc3)ccc21,inactive: 77%
16,Cc1ccc(C)c(N2CCN(C(=O)CCS(=O)(=O)c3cc(Br)cc4c3N(C(=O)C3CC3)CC4)CC2)c1,inactive: 80%
17,COc1ccc(CNC(=O)C(Cc2ccccc2)NS(=O)(=O)c2ccc3c(c2)CCN3C(C)=O)cc1 (configuration not stated),inactive: 127%
18,O=C(CNCc1ccco1)Nc1ccc(Oc2ccccc2)cc1,inactive: 115%
19,COc1cc(NC(=O)CCc2c(C)nc3c(-c4ccc(F)cc4)c(C)nn3c2C)cc(OC)c1OC,inactive: 146%
20,COc1ccc(C)cc1S(=O)(=O)NCc1ccccc1,inactive: 104%
21,CCOc1ccc(NC(=O)CC2C(=O)N(c3ccc(OC)cc3)C(=O)N2C2CCCCC2)cc1 (configuration not stated),inactive: 133%
22,CCCSc1ncc(Cl)c(C(=O)N2CCN(c3cccc(Cl)c3)CC2)n1,inactive: 82%

row,SMILES,survival
1,Cc1ccc2c(C)nc(Nc3nccc(C)n3)nc2c1,inactive: 110%
2,CCOc1ccc(C(=O)Oc2c(Sc3ccccc3)c(C)nn2C(C)(C)C)cc1OCC,inactive: 61%
3,Cc1nc(SCC(=O)Nc2ccc(C)c(Cl)c2)cc(-c2ccccc2)n1,inactive: 68%
4,CCc1ccc2occ(CC(=O)Nc3ccc(OC)c(Cl)c3)c2c1,inactive: 85%
5,COc1ccc(CN(Cc2ccco2)C(=O)COc2ccccc2OC)cc1,inactive: 82%
6,CC(=O)c1ccc(NC(=O)Nc2sc3nc4n(c(=O)c3c2C)CCC(C)CC4)cc1 (configuration not stated),inactive: 99%
7,CCc1ccccc1-n1cnc2cc(C(=O)NC3CCCCCC3)ccc21,inactive: 22%
8,O=C(c1ccc2c(c1)CCN2S(=O)(=O)c1ccccc1)N1CCN(c2ccccc2F)CC1,inactive: 83%
9,CC(C)c1ccc(CNC(=O)c2ccc(N3CCCC3)c(NC(=O)NCc3ccccc3)c2)cc1,inactive: 89%
10,COc1ccccc1N1CCN(S(=O)(=O)c2ccc(F)c(C(=O)Nc3ccc(Cl)cc3C(F)(F)F)c2)CC1,inactive: 134%
11,O=C(Nc1ccccc1Cl)[C@H](CSCc1ccccc1)N1Cc2ccccc2C1=O,inactive: 62%
12,O=C(CN1C(=O)CSc2ccc(S(=O)(=O)N3CCCC3)cc21)NCc1ccccc1Cl,inactive: 95%
13,CC1(C)Cc2ccccc2C(=NCCC(=O)O)N1,inactive: 100%
14,CSc1ccc(-c2nc3cccc(C)n3c2Nc2ccc3c(c2)OCO3)cc1,inactive: 88%
15,COc1ccc(-c2nnc(SC(C)C(=O)O)o2)cc1 (configuration not stated),inactive: 131%
16,COc1ccc(N2C(=O)C(CC(=O)Nc3ccccc3)N(CCC3=CCCCC3)C2=O)cc1 (configuration not stated),inactive: 81%
17,Cc1[nH]c2ccccc2c1C1(O)C(=O)N(Cc2ccccc2)c2ccc(Cl)cc21 (configuration not stated),inactive: 28%
18,CC(=O)N1CCCc2cc(S(=O)(=O)N3CCCC(C(=O)NC(C)C)C3)ccc21 (configuration not stated),inactive: 127%
19,Cc1ccc(OCC(=O)Nc2c(C(=O)c3ccc(Cl)cc3)oc3ccccc23)cc1C,inactive: 129%
20,CCCCNC(=O)CCc1c(C)nc2cc(-c3ccccc3)nn2c1C,inactive: 84%
21,CS(=O)(=O)Nc1ccc(C2=NN(S(C)(=O)=O)C(c3ccc4c(c3)OCO4)C2)cc1 (configuration not stated),inactive: 100%
22,CC(C)Oc1ccc(CNC(=O)c2sc3ncccc3c2-n2cccc2)cc1,inactive: 64%

row,SMILES,survival
1,COc1ccc(-n2nc(C(=O)Nc3ccc(C(C)=O)cc3)nc2-c2ccccc2)cc1,inactive: 51%
2,COc1ccc(-c2nnc(SCCOc3ccccc3C)o2)cc1OC,inactive: 85%
3,O=C(COc1ccccc1)N/N=C/c1ccccc1,inactive: 110%
4,Cc1cc(C(F)F)n2ncc(C(=O)N3CCCCC3)c2n1,inactive: 111%
5,O=S(=O)(c1ccc(Cl)cc1)c1nc(-c2cccs2)oc1SCc1ccccc1F,inactive: 70%
6,Cc1cn(C)c(CC(=O)Nc2ccc(F)cc2Cl)c1C(=O)O,inactive: 76%
7,Cc1cc(C)cc(OCCSc2nc3ccc(NC(=O)COc4ccccc4)cc3s2)c1,inactive: 87%
8,Cc1ccc(OCC(=O)Nc2nonc2-c2ccc(Br)cc2)cc1C,inactive: 68%
9,COc1ccc(-c2ccc(NS(=O)(=O)c3cc(C)c(C)cc3C)cc2)nn1,inactive: 72%
10,CCn1nc(C)c2c(-c3ccccc3)cc(=O)n(C(C)C(=O)Nc3cc(C)ccc3C)c21 (configuration not stated),inactive: 73%
11,O=C(Nc1nc2c(F)cccc2s1)c1ccc(S(=O)(=O)N2CCCc3ccccc32)cc1,inactive: 81%
12,CCOC(=O)C(CC)N1CCN(Cc2ccc(F)cc2)C(=O)C1=O (configuration not stated),inactive: 87%
13,CCn1c(SCC(=O)c2ccc(C)cc2)nnc1C1CC1,inactive: 95%
14,COc1ccc(N2CCN(C(=O)C(C)n3nc(C)c4sc5ccccc5c4c3=O)CC2)cc1 (configuration not stated),inactive: 102%
15,CCc1ccc(NC(=O)Cn2nc(SC)c(S(=O)(=O)c3ccc(OC)cc3)c2N)cc1,inactive: 128%
16,Clc1ccc(CCNC(c2ccc(Cl)cc2)c2nnc(-c3ccccc3)o2)cc1 (configuration not stated),inactive: 86%
17,CCOC(=O)c1c(NC(=O)C2c3ccccc3Oc3ccccc32)sc2c1CCC(CC)C2 (configuration not stated),inactive: 65%
18,CCc1ccc(NC(=O)Cn2c(=O)n(CCCC(=O)NCc3ccc4c(c3)OCO4)c(=O)c3ccccc32)cc1,inactive: 101%
19,CCOC(=O)c1c(S(=O)(=O)N2CCCC(C(=O)N3CCN(c4cc(C)ccc4C)CC3)C2)c(C)n(C)c1C (configuration not stated),inactive: 72%
20,Cc1ccc2c(c1)N(Cc1cccc(C(F)(F)F)c1)C(=O)C(C)O2 (configuration not stated),inactive: 107%
21,CCS(=O)(=O)NCC(c1ccco1)N1CCN(c2ccc(F)cc2)CC1 (configuration not stated),inactive: 82%
